The values below come from ChEMBL document CHEMBL4888484, “Replenishing the malaria drug discovery pipeline: Screening and hit evaluation of the MMV Hit Generation Library 1 (HGL1) against asexual blood stage Plasmodium falciparum ,using a nano luciferase reporter read-out” (2022).

As a reminder, the % Inhibition is the change of the read-out against control, counted positive when it falls.

Out of some 150,000 compounds screened, about 540 (0.36%) showed an effect of 50% or more. This is one part of the list.

In this experiment the test system is Plasmodium falciparum. Kind of experiment: Primary screen in NF54 nanoGlo assay, in single point, at 2uM, 72h; a lower Z score goes with more inhibition. In kind it is functional, Erythrocyte. The note with it: timepoint 72 hour.
Regarding `CCN(Cc1ccc(C(F)(F)F)cc1)[C@H]1CCNC1=O`, the “% Inhibition” value was -8% and the Z score came out at 0.69.

`COc1ccc(NC(=O)C2[C@@H]3C=C[C@]4(O3)C(C(=O)NC3CCCCC3)N(C(C)c3ccccc3)C(=O)[C@H]24)cc1` (some centres not stated): the “% Inhibition” value came out at 8% and the Z score was -1.22.

Regarding `COc1ccc2c(c1)CCCN(C(=O)Nc1ccn(CC#N)n1)C2`, the “% Inhibition” value is recorded as -4% and the Z score is recorded as 0.39.

Turning to `CCCN(CC#N)CC(=O)NC(=O)Nc1ccccc1`, the “% Inhibition” value is reported as -10% and the Z score is given as 0.87.

`CC1(C)C[C@@](C)(c2ccccc2)c2ccccc2N1C(=O)COc1nc2ccccc2s1`: the “% Inhibition” value is recorded as -3% and the Z score was 0.57.

For the compound `Nc1nc2c(c(N3CCc4nc(N)sc4C3)n1)CCCC2`, the “% Inhibition” value was -9% and the Z score is 0.86.

Regarding `Cc1cccc2c(NCCS(C)(=O)=O)ncnc12`, the “% Inhibition” value is -8% and the Z score stood at 1.43.

`Cn1nccc1CN1CCOc2ccc(F)cc21`: the “% Inhibition” value was -16% and the Z score was 2.17.

Consider `C[C@@H](c1c(F)cccc1F)S(=O)(=O)CC(=O)N1CCCc2ccccc21`, for which the “% Inhibition” value was -14% and the Z score came out at 1.39.

As for `COc1cc(NC(=O)Cn2nc3c(cc2=O)CCC3)cc(OC)c1`, the “% Inhibition” value was -2% and the Z score turned out to be 0.2.

For `Cn1c(C(=O)NCc2ccc(Cl)cc2)nnc1N1CC2CCC(C1)O2`, the “% Inhibition” value is given as -3% and the Z score is on record as 0.42.

`COCc1c(C(=O)NC(C)(C)CO)cnn1-c1ncc2c(n1)-c1ccccc1CCC2`: the “% Inhibition” value was -10% and the Z score was 1.69.

For the compound `O=C(COc1cccc(Cl)c1)N[C@@H](Cc1ncc[nH]1)c1ccccc1`, the “% Inhibition” value is listed as -2% and the Z score was 0.22.

With `COc1cc(OC)cc(-c2nc(-c3ccc4c(c3)ncn4CCC(=O)N3CCCCCC3)no2)c1`, the “% Inhibition” value is reported as -12% and the Z score is on record as 2.

`O=C(NCCC1CCN(C(=O)NC2CCCCC2)CC1)c1cccc(F)c1`: the “% Inhibition” value is -2% and the Z score is given as 0.25.

Consider `CC(C)c1ccc([C@H]2C[C@@H](C)Nc3nc(CO)nn32)cc1`, for which the “% Inhibition” value was -11% and the Z score is reported as 1.61.

As to `Cc1nc(N[C@@H](Cc2ccc(O)cc2)C(N)=O)c2c(C)noc2n1`, the “% Inhibition” value is recorded as -10% and the Z score was 1.47.

In the case of `CC1CCCC(NC(=O)C2CCN(S(=O)(=O)c3ccc4nc5c(c(C(=O)O)c4c3)CCCC5)CC2)C1C` (configuration not stated), the “% Inhibition” value is on record as -8% and the Z score is reported as 1.21.

For `CC[C@H](NC(=O)N1CC(Cc2cccc(C)c2)C1)c1nccs1`, the “% Inhibition” value is 17% and the Z score is -2.22.

In the case of `CCc1noc([C@H](C)Oc2ccc3c(c2)CCCNC3=O)n1`, the “% Inhibition” value is -3% and the Z score was 0.66.

For the compound `CC[C@@H](C(=O)Nc1ncccc1Br)c1c(C)noc1C`, the “% Inhibition” value is on record as 1% and the Z score is given as -0.18.

Regarding `O=C(NC1CCCCC1)N1CCC(CCNS(=O)(=O)c2ccc(F)c(Cl)c2)CC1`, the “% Inhibition” value was found to be 2% and the Z score was -0.36.

Consider `O=C1C[C@H](c2ccc3c(c2)OCCO3)c2sc(Nc3ccccc3)nc2N1`, for which the “% Inhibition” value was found to be 28% and the Z score is -3.13.

As to `CN(CC(=O)Nc1cc(S(=O)(=O)N2CCCCC2)ccc1Cl)C1CCCCCC1`, the “% Inhibition” value was 25% and the Z score is reported as -2.81.

In the case of `CNC(=O)c1cc(O[C@H]2CCCN(c3ccnc(C)n3)C2)ccn1`, the “% Inhibition” value is recorded as 7% and the Z score is -0.9.

`Cc1ccc(NC(=O)Cn2c(=O)ncc3cc(S(=O)(=O)N4CCCC[C@@H]4C)ccc32)cc1Cl`: the “% Inhibition” value is 31% and the Z score is -3.55.

For the compound `O=C1C[C@H](c2nc(-c3ccccc3)c(CCc3ccccc3)[nH]2)CN1`, the “% Inhibition” value is recorded as 2% and the Z score is recorded as -0.2.

Turning to `CCN(C)CCN(CC)C(=O)CCc1cc2c(n1-c1ccc(OC)cc1)-c1ccccc1CC2`, the “% Inhibition” value was 23% and the Z score was -4.02.

With `CCOc1ccc(-c2nn(-c3ccccc3)cc2/C=C(\C(=O)c2ccccc2)c2nc3ccccc3o2)cc1`, the “% Inhibition” value amounted to 22% and the Z score was -2.51.

Regarding `CCC(=O)N(CCN1CCOCC1)CC(=O)N1N=C(c2ccc(OC)cc2)C[C@H]1c1ccc(C)cc1`, the “% Inhibition” value was -20% and the Z score is 1.73.

On to `O=C(CCc1nnc(C2CCCC2)o1)N1CCC[C@H]1c1ccc[nH]1`, for which the “% Inhibition” value was -8% and the Z score was determined as 0.8.

On to `CCOC(=O)[C@H](CC)n1nnc(-c2ccc3ncccc3c2)n1`, for which the “% Inhibition” value turned out to be 10% and the Z score is listed as -1.55.

As for `CCC(C)Oc1cc(-c2nc(C3CCCO3)no2)ccn1` (configuration not stated), the “% Inhibition” value amounted to 9% and the Z score was -1.7.

With `CO[C@H]1COC[C@@H]1NC(=O)N(C)Cc1nc(C)no1`, the “% Inhibition” value worked out at 6% and the Z score was -1.02.

Consider `CS(=O)(=O)NCCNC(=O)NCCOc1ccc(F)c(F)c1`, for which the “% Inhibition” value was -10% and the Z score is recorded as 1.26.

Regarding `C[C@@H](c1nnnn1C1CCCCC1)N1CCN(Cc2ccccn2)CC1`, the “% Inhibition” value is listed as 5% and the Z score is -0.85.

As to `Cc1ccc(OC2(C(=O)O)CCN(C(=O)[C@]3(C)CCCO3)CC2)cc1`, the “% Inhibition” value is reported as -4% and the Z score is on record as 0.81.

With `COC[C@H](C)Nc1c(F)cc(C#N)cc1F`, the “% Inhibition” value is listed as -13% and the Z score was found to be 1.12.

For `FC(F)c1nn(Cc2nc3c4cnn(-c5ccccc5)c4ncn3n2)c(C2CC2)c1Cl`, the “% Inhibition” value is on record as -4% and the Z score came to 0.61.

Take `CCc1cc(N2CCO[C@H](c3nccs3)C2)n2ncnc2n1`: the “% Inhibition” value was -14% and the Z score was 1.96.

As for `CC(=O)N[C@H]1[C@H](Oc2ccc(Cl)cc2Cl)O[C@@H]2COC(c3ccccc3)O[C@H]2[C@@H]1O` (some centres not stated), the “% Inhibition” value is on record as 0% and the Z score was -0.01.

For the compound `CC(=O)NCc1ccc(C(=O)N/C(=N/c2ccccc2)NC[C@H]2CCCO2)cc1`, the “% Inhibition” value is on record as -10% and the Z score is listed as 0.93.

`C#CC(C)(C)N(C)S(=O)(=O)c1cccs1`: the “% Inhibition” value was -4% and the Z score came out at 0.76.

As to `CCN1CCN(C2=NCCN2C(=O)C2CCCC2)CC1`, the “% Inhibition” value is -7% and the Z score is listed as 1.26.

Consider `COc1ccc2c(c1)OCCC2NC(=O)C(C)Cc1c(C)n[nH]c1C` (configuration not stated), for which the “% Inhibition” value worked out at 0% and the Z score is -0.05.

Consider `Cc1cc(=O)[nH]c(N2CCC(NC(=O)[C@@H]3COc4ccccc4O3)CC2)n1`, for which the “% Inhibition” value is reported as -3% and the Z score turned out to be 0.46.

For `O=C(COC[C@H]1CCCCO1)NC(C1CC1)C1CC1`, the “% Inhibition” value was -8% and the Z score amounted to 1.05.

Take `Cn1cc(Cl)c(-c2nc3ccc(C(=O)O)cc3[nH]2)n1`: the “% Inhibition” value is given as -5% and the Z score is listed as 0.67.

Turning to `O=C(CCn1cc(Br)ccc1=O)Nc1ncccc1O`, the “% Inhibition” value is on record as -4% and the Z score was 0.76.

As to `O=C(NCC1(c2cccs2)CC1)Nc1cccs1`, the “% Inhibition” value was -9% and the Z score was 1.32.

As to `COc1cc(C)ccc1OCCOCCN(C)C`, the “% Inhibition” value was -2% and the Z score came to 0.33.

With `COc1ccc(C(=O)N[C@@H]2COCC[C@@H]2OCc2ccccn2)cn1`, the “% Inhibition” value is -4% and the Z score came to 0.71.

Consider `Cc1c(-c2cc(-c3cnn(C)c3C)n(CC(=O)Nc3ccccc3)n2)cnn1C`, for which the “% Inhibition” value worked out at 33% and the Z score was -3.76.

Take `CCOc1ccc(NC(=O)N(Cc2cn(C)c3ccccc23)C2CCCCC2)cc1`: the “% Inhibition” value was found to be 33% and the Z score is recorded as -4.47.

`CC(=O)N1C[C@@H]2CN(Cc3ccc(CC(C)C)cc3)C[C@]2(C(=O)O)C1`: the “% Inhibition” value is listed as -2% and the Z score was found to be 0.46.

Take `Fc1cnccc1CN[C@H]1CCOc2c(Br)cccc21`: the “% Inhibition” value is -1% and the Z score was 0.19.

`c1cncc(-c2nc3cc(-n4ccnc4)ccc3o2)c1`: the “% Inhibition” value is recorded as -9% and the Z score came out at 1.36.

Consider `COc1ccc(CCOc2nc(-c3ccc(C)cc3)n(-c3ccc(NC(=O)C4CCC4)cc3)n2)cc1`, for which the “% Inhibition” value was -10% and the Z score was 0.93.

Regarding `CC1(C)C(NCCc2cccc(C(N)=O)c2)[C@@H]2CCC[C@@H]21` (some centres not stated), the “% Inhibition” value is on record as -8% and the Z score stood at 1.57.

As for `CC(NC(=O)C1CCCc2c(O)cccc21)c1ncon1` (configuration not stated), the “% Inhibition” value was determined as 6% and the Z score is recorded as -0.73.

Regarding `C=CCNC(=O)NC(=O)[C@H](C)S(=O)(=O)c1ccccc1`, the “% Inhibition” value is -3% and the Z score amounted to 0.27.

Regarding `CN(C)c1nc(N2CC[C@H](NC(=O)c3cnccn3)[C@@H](O)C2)ncc1F`, the “% Inhibition” value is listed as -12% and the Z score is listed as 1.57.

As for `O=C(Nc1ccc(N2CCOCC2)cc1)c1cccc(-c2cnc3ccccc3c2)c1`, the “% Inhibition” value is -24% and the Z score came out at 3.15.

For `O=C(NCC1CCCO1)[C@@H]1CNC[C@H](C(=O)Nc2ccc3c(c2)CCC3)C1` (some centres not stated), the “% Inhibition” value is -12% and the Z score stood at 1.37.

With `CN1CC2(CCN(c3cc(C(N)=O)ccn3)CC2)C[C@@H](c2ccccc2)C1=O`, the “% Inhibition” value is 16% and the Z score was -2.14.

Consider `O=C1CC2(CCN(C(=O)N3CCOCC3)CC2)CN1Cc1ccc(Cl)cc1`, for which the “% Inhibition” value is listed as 7% and the Z score is on record as -0.99.

In the case of `CN1C(=O)c2ccc(NC(=O)c3ccsc3)cc2C1=O`, the “% Inhibition” value is -1% and the Z score came out at 0.07.

Regarding `Cc1noc(C)c1NC(=O)N[C@H](c1ccccc1)C1(CO)CCC1`, the “% Inhibition” value amounted to 0% and the Z score is recorded as -0.04.

For the compound `NC(=O)[C@@H]1CCCN1S(=O)(=O)c1ccc(OCC2CCCCC2)cc1`, the “% Inhibition” value is listed as -4% and the Z score is on record as 0.47.

Turning to `CCN(CC)CCNC(=O)CC1CCN(C(=O)c2ccc3oc(-c4ccc(C)cc4)nc3c2)CC1`, the “% Inhibition” value was -13% and the Z score was found to be 1.57.

`O=S1(=O)CCCN1Cc1cccc(-c2ccc3nonc3c2)c1`: the “% Inhibition” value is recorded as 4% and the Z score was -0.42.

As for `CCN1c2cc(C)ccc2-n2cccc2C12CCN(C(=O)Nc1ccc3c(c1)OCCO3)CC2`, the “% Inhibition” value is listed as 12% and the Z score was -1.61.

As for `CC(C)(CN1CCOCC1)NC(=O)c1ncc(F)cc1F`, the “% Inhibition” value is given as -4% and the Z score is 0.49.

`CN(C)c1ccc(C(=O)N(CCC#N)CC(C)(C)C)nc1`: the “% Inhibition” value was -2% and the Z score was 0.31.

As for `O=C1CC[C@H](N2CCC(Cc3ccccc3)CC2)CCN1Cc1ccc(F)cc1`, the “% Inhibition” value is 3% and the Z score is recorded as -0.67.

On to `CC(C)[C@H](NC(=O)CCCn1cccn1)c1nc2ccccc2n1C(C)C`, for which the “% Inhibition” value is reported as 2% and the Z score is -0.19.

With `C[C@@H](CC(=O)NC(C)(C)CO)NC(=O)C1CCCCC1`, the “% Inhibition” value is given as -10% and the Z score was determined as 1.56.

Take `C=CCN1C(=O)OC(C)(CCC=C(C)C)C1(C)O` (configuration not stated): the “% Inhibition” value is on record as 76% and the Z score is -1.64.

For `CCc1c(C(=O)NCc2nnc(C3CC3)o2)cnn1-c1ccccc1OC`, the “% Inhibition” value is -16% and the Z score stood at 1.62.

For `Cc1cccc(NC(=O)Nc2ccc(-c3nc4ccccc4s3)cc2C)c1`, the “% Inhibition” value is -5% and the Z score worked out at 0.86.

As for `COc1cc(OC)c(C(=O)N2CC[C@H](C(=O)N3CCCC3)C2)cc1OC`, the “% Inhibition” value is on record as 3% and the Z score is given as -0.46.
